From PubChem BioAssay AID1346428 (National Center for Advancing Translational Sciences (NCATS), 2018)
Screen size: about 48,000 compounds; about 1,200 (2.5%) were called active. Roughly 2% stayed inconclusive and do not appear here.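 How the source made its calls: active means activation of at least 60% and not above a set upper limit (about 1 call in 100 departs from these limits); inconclusive means activation of 40% to 60%, or above that upper limit; inactive means activation under 40%.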 The list shows a part of the results.

Target: Probable G-protein coupled receptor 32 (Homo sapiens) (UniProt O75388)
Assay: qHTS for Agonists of Human Resolvin D1 Receptor DRV1; further: 0% is about no effect
Conditions: CHO-K1 GPR32 beta-arrestin PathHunter luminescence, 90 min; at 76.9 µM; hits give high values; zero percent set by DMSO-only wells
Outline: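 PathHunter enzyme-fragment complementation, CHO-K1 GPR32 stable line; 2,500 cells/well, overnight attach; cpd 90 min 37 °C 5% CO2; detection reagent 1 h RT; chemiluminescence. DMSO = EC0.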

Chain of UniProt O75388 (O75388 whole entry, looked up): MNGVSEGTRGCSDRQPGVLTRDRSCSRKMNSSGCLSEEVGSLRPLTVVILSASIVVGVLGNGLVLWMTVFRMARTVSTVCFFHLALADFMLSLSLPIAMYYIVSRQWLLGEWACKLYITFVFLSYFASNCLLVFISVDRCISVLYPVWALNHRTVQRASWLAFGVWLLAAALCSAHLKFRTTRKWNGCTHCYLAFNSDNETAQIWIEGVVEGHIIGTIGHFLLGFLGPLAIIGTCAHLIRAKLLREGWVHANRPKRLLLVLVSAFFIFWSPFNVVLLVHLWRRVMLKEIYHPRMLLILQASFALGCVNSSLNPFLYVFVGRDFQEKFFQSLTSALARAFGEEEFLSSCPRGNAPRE

activation, inactive:
COc1ccc(CNC(=O)CN2C(=O)c3cccnc3Oc3ccc(C)cc32)cc1 -10.8%
CCc1cccc(C)c1NC(=O)CSc1nnc(CC)n2c1cc1occc12 -4.57%
Cc1cc(OCC(=O)N(Cc2sccc2C)C2CCS(=O)(=O)C2)ccc1Cl (stereo not drawn) -18.6%
COc1ccc(Nc2cc(C(=O)NCc3ccccc3OC)c3ccccc3n2)cc1 2.45%
CCCSCCCNC(=O)c1ccc2nc(Cc3ccccc3)oc2c1 -13%
CCSc1ncc(Cl)c(C(=O)Nc2ccc(S(=O)(=O)N(C)c3ccccc3)cc2)n1 -6.78%
O=C(CN1C(=O)COc2ccc(S(=O)(=O)N3CCCCCC3)cc21)NCc1ccc(F)cc1 -23.3%
Cc1ccc(NC(=O)CSc2nc3n[nH]c(C)c3c(=N)n2-c2cccc(C)c2)cc1 4.83%
Cc1ccc(NC(=O)C(=O)NCC2(c3ccccc3)CCCC2)cc1Cl -24.7%
CCc1ccc(CNC(=O)CN2CCSc3ccccc32)cc1 -11.5%
CCOC(=O)N1CCc2c(sc3c2c(=O)n(CCc2ccccc2)c(=O)n3Cc2c(F)cccc2Cl)C1 -7.88%
O=C(NCCc1ccccc1)c1cnn(-c2ccc(F)cc2)c1-n1cccc1 19.1%
CCOc1ccc(NC(=O)c2cnc(N3CCCCC3)c3ccccc23)cc1 -24.5%
CCCOc1c(Cl)cc(C(=O)N(Cc2cccc(OC)c2)C2CCS(=O)(=O)C2)cc1Cl (stereo not drawn) -31.4%
CC(C)NC(=O)C1CCC(Cn2c(=O)c3sccc3n(CC(=O)NCc3ccccc3)c2=O)CC1 (stereo not drawn) 2.75%
COc1ccc(NC(=O)Cn2cnc3c(oc4ccccc43)c2=O)cc1OC -0.798%
O=C(NCc1ccc2c(c1)OCO2)c1ccc2c(c1)N(Cc1ccccc1)C(=O)c1ccccc1S2=O (stereo not drawn) 3.42%
CCOC(=O)c1c(-c2ccccc2)csc1NC(=O)c1cc(-c2ccc(F)cc2)on1 24%
CN(c1ccccc1)S(=O)(=O)c1nnc(NC(=O)c2ccccc2)s1 7.68%
CC(C)n1cnc(S(=O)(=O)N2CCCC(C(=O)NCc3ccccc3Cl)C2)c1 (stereo not drawn) -29.6%
COC(=O)Cn1c(=O)c2cccn2c2cccnc21 -14.3%
CCOc1ccc(C(=O)c2c(N)c(-c3nc(-c4ccc5c(c4)OCO5)cs3)c3ccccn23)cc1 4.68%
Cc1cc(C(=O)Nc2ccc(C(C)C)cc2)c2c(C)nn(-c3ccccc3)c2n1 -4.25%
Cc1ccsc1CN(C(=O)c1oc2cc(Br)ccc2c1C)C1CCS(=O)(=O)C1 (stereo not drawn) -30.5%
COc1cccc(CNC(=O)CSc2c3c(nc4cc(Cl)ccc24)CCCC3)c1 -19%
CN(C)CCCN(C(=O)c1ccc2c(c1)OCCO2)c1nc2ccccc2s1 -7.7%
Cc1cccc2c(=O)cc(CSc3ccccc3NC(=O)c3cccc(F)c3)[nH]c12 13.5%
COc1ccccc1CNc1ccc(-c2nc(-c3ccco3)no2)cc1[N+](=O)[O-] 29%
CCOc1ccccc1NC(=O)Cn1cc(C(=O)c2ccc(Cl)cc2)c(=O)c2ccc(C)nc21 4.65%
COc1ccc(Cn2c(=O)c3oc4ccccc4c3n(Cc3cccc(C)c3)c2=O)cc1 -20.3%
O=C(NCc1ccccc1Cl)NCc1noc2ccccc12 0.54%
CSc1ccc(CNC(=O)c2ccc(NC(=O)c3nsc4ccccc34)cc2)cc1 -18.2%
COC(=O)Cn1c(=O)c2c(nc3n2CCN3c2ccc(F)cc2)n(C)c1=O -6.37%
COc1cccc(-n2c(SCC(=O)c3ccc(Cl)cc3)nc3c([nH]c4ccccc43)c2=O)c1 10.1%
Cc1ccc(N2C(=O)[C@@H]3CSC(c4ccc(F)cc4)N3C2=O)cc1 (stereo partly drawn) 3.17%
COc1ccc(Cl)cc1NC(=O)Cn1c(=O)n(CCC(=O)NCc2ccc3c(c2)OCO3)c(=O)c2ccccc21 -8.12%
CCOc1ccccc1C(=O)Nc1nc2c(s1)CC(C)CC2 (stereo not drawn) 5.41%
Cc1ccc(CNS(=O)(=O)c2ccc(-c3cc(C(F)(F)F)on3)s2)cc1 -3.78%
Nc1c(C(=O)Nc2ccccc2)nnn1Cc1ccc(F)cc1Cl -20.7%
Cc1ccccc1NC(=O)Cn1c(=O)n(CC2CCC(C(=O)NCCc3ccccc3)CC2)c(=O)c2ccccc21 (stereo not drawn) 0.136%
Cc1ccc(C(=O)Nc2cc3c(cc2N2CCCC2)n(C)c(=O)c(=O)n3C)cc1 -12.2%
COc1cc(NC(=O)COCc2cc(-c3ccc(F)cc3)on2)cc(OC)c1OC 40.9%
O=C(Nc1ccc(Cl)c(-c2nc3cc(Cl)ccc3o2)c1)c1cc([N+](=O)[O-])ccc1N1CCOCC1 -2.83%
Cc1nn(C(C)(C)C)c(OC(=O)C(C)(C)C)c1Sc1ccccc1 49%
CCCOc1ccc(Oc2nc(NCC(C)C)nc(N3CCOCC3)n2)nn1 -10.7%
O=C(O)CCn1cnc2onc(-c3cc(F)cc(F)c3)c2c1=O 20.3%
CC(=O)Nc1ccc(NC(=O)Cn2nc(C(=O)Nc3ccc(C)cc3)ccc2=O)cc1 -5.71%
CCOc1ccc(-c2cc3c(=O)n(CC(=O)NCc4ccc(Cl)cc4)ccn3n2)cc1 11.6%
CC(C)(C)NC(=O)[C@H]1CC[C@H]2[C@@H]3CC[C@H]4NC(=O)C=C[C@]4(C)[C@H]3CC[C@]12C -18.7%
COc1ccccc1N1CCN(c2nc(-c3ccc(C)cc3)nc3ccccc23)CC1 -20.9%
COc1cccc(NC(=O)C2CCCN(S(=O)(=O)c3ccc4[nH]c(=O)ccc4c3)C2)c1 (stereo not drawn) -11.2%
CCOc1ccc(NC(=O)CN(c2ccc(Cl)cc2C)S(=O)(=O)c2ccccc2)cc1 -13.1%
COc1ccc(N2CC(NC(=O)c3ccc4c(c3)OCO4)CC2=O)cc1 (stereo not drawn) -7.78%
COc1ccc(NC(=O)CN(c2ccc(C)cc2)S(=O)(=O)c2cccc3nonc23)cc1OC -39.1%
CCOc1ccc(OCC)c(NS(=O)(=O)c2c(C(=O)N3CCC(C)CC3)c(C)n(C)c2C)c1 -16.1%
O=C(Nc1ccc(OCc2cc(=O)n3c4c(sc3n2)CCCC4)cc1)c1ccccc1 -7%
CC1CCc2nc3ncn(Cc4ccccc4F)c(=O)c3cc2C1 (stereo not drawn) -6.44%
Cc1ccc(-n2c(SCC(=O)O)nc3sc4c(c3c2=O)CCCC4)cc1 4.03%
O=C(Cn1c(=O)c2ccccc2n(CC(=O)Nc2ccc(F)cc2F)c1=O)NCCc1ccccc1 -1.03%
CCN(CC)CCNC(=O)c1ccc2c(c1)NC(=O)C(CS(=O)(=O)Cc1cccc(Br)c1)N2 (stereo not drawn) -14.6%
COc1ccc(-c2nc3cc(C(C)C)ccc3o2)cc1NC(=O)COc1ccc(C)cc1C -1.93%
COc1ccc(NC(=O)CSc2ncccc2C(=O)O)cc1OC -1.88%
Cc1ccc(C)c(Nc2ncnc3onc(C)c23)c1 14.4%
COc1ccc(NC(=O)CCSc2nc(-c3ccco3)cc(C(F)(F)F)n2)cc1 -7.44%
CCN(C(=O)c1cc2c(=O)oc3ccc(C)cc3c2s1)c1cc(OC)ccc1OC -6.45%
CCN(CC)c1ccc(CN(C(=O)Cc2coc3ccc(C)cc23)C2CCS(=O)(=O)C2)cc1 (stereo not drawn) -38.6%
CCC1CCCCN1CCCNC(=O)c1ccc2c(c1)N(Cc1ccccc1)C(=O)c1ccccc1S2(=O)=O (stereo not drawn) -15.7%
CCn1nc(C)c2c(-c3ccccc3)cc(=O)n(C(C)C(=O)NCc3cccc(OC)c3)c21 (stereo not drawn) -2.83%
CCOc1cccc(CC(=O)N2CCc3c([nH]c4ccccc34)C2c2ccccc2)c1OCC (stereo not drawn) -31.4%
Cc1ccc(-c2nc3scc(CCNS(=O)(=O)c4ccc(F)c(C)c4)n3n2)cc1 20.1%
CCc1ccc(OCCCn2c(-c3ccc(Cl)cc3)nc3ccccc3c2=O)cc1 -11.9%
CCC1CN(C(=O)N2CCC(C(=O)NCCc3ccccc3C)CC2)c2ccccc2O1 (stereo not drawn) -15.2%
Cc1ccc(OCC(=O)OCc2cc(=O)n3nc(C4CCCCC4)sc3n2)cc1C -10.3%
O=C(c1[nH]c2ccccc2c1Sc1ccc(Cl)cc1)N1CCCCC1 -29.2%
O=C1CC(c2ccccc2)Sc2nc(-c3ccc(F)cc3)nn21 (stereo not drawn) -8.23%
CCN(CC)c1ccc(NC(=O)c2cc(C)nc3c2c(C)nn3-c2cccc(F)c2)c(C)c1 -23.7%
Cc1ccc(Cl)cc1NC(=O)CSc1ccc(C(=O)O)cn1 -3.58%
c1ccc(-c2nnc(CN3CCN(c4ccccn4)CC3)o2)cc1 17.1%
O=C(NCCSCc1cccc(Cl)c1)C1CCN(S(=O)(=O)Cc2ccccc2)CC1 9.6%
CCN(Cc1ccccc1)Cc1c(O)ccc2c(=O)c(-c3ccccc3)c(C(F)(F)F)oc12 -22.1%
CCOc1ccccc1CNCc1c(C(=O)O)c(C)n(Cc2ccc(Cl)cc2)c1C -6.47%

activation, active:
Cc1cc(Nc2cccc(Cl)c2)nc2ccc(NC(=O)c3cccnc3)cc12 60.5%
Cn1cc(C(=O)N2CCN(c3cccc(C(F)(F)F)c3)CC2)c2c3ccccc3n(C)c2c1=O 118%
